Data reported in US9340590B2 (priority 2011, dated 2016).
Where two headings read alike, the source gives them in different places. At least one structure is not confirmed: it was looked up by name or label, or the drawing left a doubt.

How the values were obtained:
Assay type in all cases: cell-based
hNav1.7 [1] = target: T1, hNav1.7 (Homo sapiens, UniProt Q15858); conditions: IonWorks Quattro, use-dependent block; read-out: IWQ Use Nav1.7
hNav1.5 = hNav1.5 (Homo sapiens, UniProt Q14524); conditions: IonWorks Quattro, use-dependent block; read-out: IWQ Use Nav1.5
hNav1.3 = hNav1.3 (Homo sapiens, UniProt Q9NY46); conditions: IonWorks Quattro, use-dependent block; read-out: IWQ Use Nav1.3
hNav1.7 [2] = target: T1, hNav1.7; conditions: read-out: Nav1.7 Use IC50

T1 sequence (Q15858 whole entry, looked up): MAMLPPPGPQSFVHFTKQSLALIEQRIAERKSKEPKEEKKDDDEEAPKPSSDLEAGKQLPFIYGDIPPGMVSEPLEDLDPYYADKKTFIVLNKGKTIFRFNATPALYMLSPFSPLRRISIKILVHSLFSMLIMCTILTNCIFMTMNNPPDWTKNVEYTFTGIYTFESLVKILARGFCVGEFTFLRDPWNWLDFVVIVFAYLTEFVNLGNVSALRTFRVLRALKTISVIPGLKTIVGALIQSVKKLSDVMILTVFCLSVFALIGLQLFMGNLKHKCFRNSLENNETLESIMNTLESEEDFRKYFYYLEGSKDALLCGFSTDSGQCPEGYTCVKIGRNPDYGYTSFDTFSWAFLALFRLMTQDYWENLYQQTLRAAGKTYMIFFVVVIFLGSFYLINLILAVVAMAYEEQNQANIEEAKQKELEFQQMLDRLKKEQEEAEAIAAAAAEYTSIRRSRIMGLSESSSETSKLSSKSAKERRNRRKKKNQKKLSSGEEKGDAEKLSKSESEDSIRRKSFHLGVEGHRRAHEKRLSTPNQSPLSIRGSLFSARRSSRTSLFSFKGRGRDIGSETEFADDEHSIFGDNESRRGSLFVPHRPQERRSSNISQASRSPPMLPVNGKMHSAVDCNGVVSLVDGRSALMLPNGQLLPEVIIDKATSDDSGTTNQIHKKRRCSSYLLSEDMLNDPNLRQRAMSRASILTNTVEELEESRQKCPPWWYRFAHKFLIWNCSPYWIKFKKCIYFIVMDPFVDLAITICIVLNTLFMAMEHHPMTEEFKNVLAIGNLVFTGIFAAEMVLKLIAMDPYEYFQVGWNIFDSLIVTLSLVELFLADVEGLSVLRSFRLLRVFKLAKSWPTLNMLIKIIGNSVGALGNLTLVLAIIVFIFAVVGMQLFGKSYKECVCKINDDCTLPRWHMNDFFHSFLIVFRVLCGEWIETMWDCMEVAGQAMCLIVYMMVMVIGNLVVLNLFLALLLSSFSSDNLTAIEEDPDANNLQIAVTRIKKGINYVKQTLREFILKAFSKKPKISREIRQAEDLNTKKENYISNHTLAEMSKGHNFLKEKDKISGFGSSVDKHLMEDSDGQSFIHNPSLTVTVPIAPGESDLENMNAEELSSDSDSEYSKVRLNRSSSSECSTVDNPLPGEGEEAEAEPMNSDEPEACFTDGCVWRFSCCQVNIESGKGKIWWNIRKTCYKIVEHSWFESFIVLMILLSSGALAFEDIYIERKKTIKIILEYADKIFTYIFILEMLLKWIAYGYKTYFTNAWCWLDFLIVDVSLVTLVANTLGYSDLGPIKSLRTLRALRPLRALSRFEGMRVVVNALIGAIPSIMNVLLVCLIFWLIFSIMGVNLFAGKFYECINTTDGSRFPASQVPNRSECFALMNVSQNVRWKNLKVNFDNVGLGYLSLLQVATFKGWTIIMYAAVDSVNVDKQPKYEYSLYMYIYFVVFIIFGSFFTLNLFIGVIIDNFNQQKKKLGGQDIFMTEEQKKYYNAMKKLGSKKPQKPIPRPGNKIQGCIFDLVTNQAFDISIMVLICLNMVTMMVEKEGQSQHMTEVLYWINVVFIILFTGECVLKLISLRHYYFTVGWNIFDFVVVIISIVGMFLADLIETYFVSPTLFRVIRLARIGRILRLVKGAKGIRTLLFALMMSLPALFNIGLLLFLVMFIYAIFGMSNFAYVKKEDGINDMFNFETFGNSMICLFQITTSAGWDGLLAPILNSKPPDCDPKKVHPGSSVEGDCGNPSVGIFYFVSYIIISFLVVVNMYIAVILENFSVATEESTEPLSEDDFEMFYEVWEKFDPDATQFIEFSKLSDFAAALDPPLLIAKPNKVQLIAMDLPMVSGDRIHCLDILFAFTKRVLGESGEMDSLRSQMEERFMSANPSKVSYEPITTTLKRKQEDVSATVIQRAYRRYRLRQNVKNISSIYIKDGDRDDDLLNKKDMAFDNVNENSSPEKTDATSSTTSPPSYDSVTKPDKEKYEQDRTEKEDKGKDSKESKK
Chain of hNav1.3 (Q9NY46 whole entry, looked up): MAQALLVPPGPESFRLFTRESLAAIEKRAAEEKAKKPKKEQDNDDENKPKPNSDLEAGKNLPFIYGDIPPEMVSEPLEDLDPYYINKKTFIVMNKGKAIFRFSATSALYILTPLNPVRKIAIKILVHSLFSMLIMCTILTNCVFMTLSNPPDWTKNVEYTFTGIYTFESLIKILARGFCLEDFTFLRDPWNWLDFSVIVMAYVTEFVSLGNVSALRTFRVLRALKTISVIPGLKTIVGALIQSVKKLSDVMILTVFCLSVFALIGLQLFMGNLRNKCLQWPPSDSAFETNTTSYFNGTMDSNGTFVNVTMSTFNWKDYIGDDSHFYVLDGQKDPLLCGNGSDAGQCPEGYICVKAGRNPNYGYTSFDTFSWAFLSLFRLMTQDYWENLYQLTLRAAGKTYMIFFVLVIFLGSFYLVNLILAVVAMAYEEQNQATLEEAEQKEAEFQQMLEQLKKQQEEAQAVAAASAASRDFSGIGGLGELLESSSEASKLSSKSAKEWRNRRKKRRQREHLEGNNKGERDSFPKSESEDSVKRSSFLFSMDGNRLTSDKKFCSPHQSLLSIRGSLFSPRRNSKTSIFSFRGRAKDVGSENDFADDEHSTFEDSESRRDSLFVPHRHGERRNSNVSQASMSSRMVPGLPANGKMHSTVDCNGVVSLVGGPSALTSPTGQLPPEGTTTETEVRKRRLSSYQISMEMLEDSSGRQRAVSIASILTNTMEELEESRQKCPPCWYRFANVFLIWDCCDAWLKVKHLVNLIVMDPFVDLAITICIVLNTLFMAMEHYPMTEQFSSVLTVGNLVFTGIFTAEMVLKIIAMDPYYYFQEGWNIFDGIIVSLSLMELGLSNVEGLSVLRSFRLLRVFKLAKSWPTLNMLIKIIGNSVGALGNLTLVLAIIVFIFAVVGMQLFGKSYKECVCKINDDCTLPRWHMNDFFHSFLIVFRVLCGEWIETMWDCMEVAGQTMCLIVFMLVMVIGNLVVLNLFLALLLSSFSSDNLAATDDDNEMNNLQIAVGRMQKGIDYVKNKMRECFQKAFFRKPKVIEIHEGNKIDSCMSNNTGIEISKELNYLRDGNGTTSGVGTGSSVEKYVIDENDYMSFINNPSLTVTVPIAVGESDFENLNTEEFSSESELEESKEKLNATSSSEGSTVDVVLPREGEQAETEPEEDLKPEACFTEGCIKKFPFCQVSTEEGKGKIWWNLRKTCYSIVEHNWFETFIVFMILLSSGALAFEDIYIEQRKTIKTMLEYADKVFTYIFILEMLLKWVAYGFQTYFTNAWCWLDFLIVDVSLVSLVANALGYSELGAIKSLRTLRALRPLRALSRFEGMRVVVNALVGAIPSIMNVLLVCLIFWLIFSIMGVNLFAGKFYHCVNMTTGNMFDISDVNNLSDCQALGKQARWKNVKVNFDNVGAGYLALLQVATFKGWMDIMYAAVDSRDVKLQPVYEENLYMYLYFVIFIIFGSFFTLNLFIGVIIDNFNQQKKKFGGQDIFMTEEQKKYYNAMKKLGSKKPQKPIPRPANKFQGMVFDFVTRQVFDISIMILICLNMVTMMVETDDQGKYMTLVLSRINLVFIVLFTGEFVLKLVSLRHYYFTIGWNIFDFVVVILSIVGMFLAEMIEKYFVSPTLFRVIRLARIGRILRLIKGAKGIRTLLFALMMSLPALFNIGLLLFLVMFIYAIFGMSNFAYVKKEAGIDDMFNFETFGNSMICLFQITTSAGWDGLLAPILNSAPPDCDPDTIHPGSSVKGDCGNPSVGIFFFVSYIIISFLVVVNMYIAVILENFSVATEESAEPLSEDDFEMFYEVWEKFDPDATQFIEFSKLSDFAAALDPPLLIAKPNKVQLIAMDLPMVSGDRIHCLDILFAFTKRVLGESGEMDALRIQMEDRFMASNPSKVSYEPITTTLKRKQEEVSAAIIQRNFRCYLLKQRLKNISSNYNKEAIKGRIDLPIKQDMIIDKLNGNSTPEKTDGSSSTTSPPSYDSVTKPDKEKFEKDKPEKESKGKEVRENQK

| SMILES | IC50 (hNav1.7 [1]) | IC50 (hNav1.5) | IC50 (hNav1.3) | IC50 (hNav1.7 [2]) |
| --- | --- | --- | --- | --- |
| CC[C@H](C)[C@@H]1NC(=O)[C@@H]2CSSC[C@@H]3NC(=O)[C@H](C(C)C)NC(=O)[C@H](CC(C)C)NC(=O)[C@H](CC(N)=O)NC(=O)[C@@H]4CCCN4C(=O)[C@H](CCCNC(=N)N)NC(=O)[C@H](CSSC[C@H](NC(=O)[C@@H](N)CC(=O)O)C(=O)N[C@@H](CC(C)C)C(=O)NCC(=O)N[C@@H](C)C(=O)N[C@@H](Cc4ccccc4)C(=O)N[C@@H](CCCNC(=N)N)C(=O)N[C@@H](CCCCN)C(=O)N2)NC(=O)[C@H](CSSC[C@@H](C(=O)N[C@@H](CCCCN)C(=O)N[C@@H](Cc2ccc(O)cc2)C(=O)N[C@H](C(=O)N[C@@H](Cc2ccccc2)C(N)=O)C(C)C)NC(=O)[C@H](Cc2c[nH]c4ccccc24)NC(=O)[C@H](CCCCN)NC(=O)[C@H](Cc2c[nH]cn2)NC(=O)[C@H]([C@@H](C)O)NC(=O)[C@H](CCCNC(=N)N)NC(=O)[C@H](CO)NC3=O)NC(=O)[C@H](Cc2cn(CCOCCOCCOCCOCCOCCOCCOCCOCCOCCOCCN)nn2)NC(=O)[C@H](CC(=O)O)NC(=O)[C@H](CC(N)=O)NC(=O)[C@H](CC(=O)O)NC(=O)[C@@H]2CCCN2C1=O [compound 524] | 210 nM | > 5 µM | 89 nM | 20 nM |
| CC[C@H](C)[C@@H]1NC(=O)[C@@H]2CSSC[C@@H]3NC(=O)[C@H](C(C)C)NC(=O)[C@H](CC(C)C)NC(=O)[C@H](CC(N)=O)NC(=O)[C@@H]4CCCN4C(=O)[C@H](CCCNC(=N)N)NC(=O)[C@H](CSSC[C@H](NC(=O)[C@@H](N)CC(=O)O)C(=O)N[C@@H](CC(C)C)C(=O)NCC(=O)N[C@@H](C)C(=O)N[C@@H](Cc4ccccc4)C(=O)N[C@@H](CCCNC(=N)N)C(=O)N[C@@H](CCCCN)C(=O)N2)NC(=O)[C@H](CSSC[C@@H](C(=O)N[C@@H](CCCCN)C(=O)N[C@@H](Cc2ccc(O)cc2)C(=O)N[C@H](C(=O)N[C@@H](Cc2ccccc2)C(N)=O)C(C)C)NC(=O)[C@H](Cc2c[nH]c4ccccc24)NC(=O)[C@H](CCCCN)NC(=O)[C@H](Cc2c[nH]cn2)NC(=O)[C@H]([C@@H](C)O)NC(=O)[C@H](CCCNC(=N)N)NC(=O)[C@H](CO)NC3=O)NC(=O)[C@H](CCCCN)NC(=O)[C@H](CC(=O)O)NC(=O)[C@H](CC(N)=O)NC(=O)[C@H](Cc2cn(CCOCCOCCOCCOCCOCCOCCOCCOCCOCCOCCN)nn2)NC(=O)[C@@H]2CCCN2C1=O [compound 519] | 170 nM | > 5 µM | 88 nM | 39 nM |
| CC[C@H](C)[C@@H]1NC(=O)[C@@H]2CSSC[C@@H]3NC(=O)[C@H](C(C)C)NC(=O)[C@H](CC(C)C)NC(=O)[C@H](CC(N)=O)NC(=O)[C@@H]4CCCN4C(=O)[C@H](CCCNC(=N)N)NC(=O)[C@H](CSSC[C@H](NC(=O)[C@@H](N)CC(=O)O)C(=O)N[C@@H](CC(C)C)C(=O)NCC(=O)N[C@@H](Cc4ccccc4)C(=O)N[C@@H](Cc4ccccc4)C(=O)N[C@@H](CCCNC(=N)N)C(=O)N[C@@H](CCCCN)C(=O)N2)NC(=O)[C@H](CSSC[C@@H](C(=O)N[C@@H](CCCCN)C(=O)N[C@@H](Cc2ccc(O)cc2)C(=O)N[C@H](C(=O)N[C@@H](Cc2ccccc2)C(N)=O)C(C)C)NC(=O)[C@H](Cc2c[nH]c4ccccc24)NC(=O)[C@H](CCCCN)NC(=O)[C@H](Cc2c[nH]cn2)NC(=O)[C@H]([C@@H](C)O)NC(=O)[C@H](CCCNC(=N)N)NC(=O)[C@H](CO)NC3=O)NC(=O)[C@H](CCCCN)NC(=O)[C@H](CC(=O)O)NC(=O)[C@H](CC(N)=O)NC(=O)[C@H](Cc2cn(CCOCCOCCOCCOCCOCCOCCOCCOCCOCCOCCN)nn2)NC(=O)[C@@H]2CCCN2C1=O [compound 538] | 50 nM | 6.31 µM | 16 nM | – |
